Test results as given in publication PMC10668032.
The other results are listed elsewhere or left out. At the low end of the ranking the order means little.

These sequences were tested against SIX1-Q177R homeodomain (UniProt Q15475) (assay: universal protein binding microarray). Conditions: Universal all-10-mer PBM (8x60K, AMADID 030236), 300 nM GST-tagged protein, Alexa Fluor 488 anti-GST; buffer, salt, pH and temperature not stated; high values mean tight binding; most listed sequences are background and not binding sites; double strand, one strand shown.

Sequence	binding signal [E-score]
ATTTGAAA	-0.161
AGCCAAGC	-0.262
CCCAGGCG	0.167
GAATCCAA	-0.159
CTTTTTCC	-0.329
CTACCCCA	0.149
AAACATTA	-0.283
TAGTGGGA	0.124
CAGCGTCG	-0.16
CTGGAGAA	-0.361
AGGTAGTA	-0.00156
CCGGGTAC	0.294
CACGGGCC	0.161
AGTCTTCA	-0.33
CATATCAA	-0.152
CGGGAAAA	-0.168
GACGGGCC	-0.0695
ACTAGGGC	-0.0858
GCTATTTA	0.0343
TCCAGGAA	0.0222
GGCTTAGA	-0.227
GTGAGACA	0.0874

Sequence	binding signal [E-score]
CTGACGCA	-0.144
GTACAGAC	-0.154
GCTTGTAC	0.127
AACGAGGC	-0.158
ACGCAGCC	0.129
GATACGCA	-0.0275
CGTGGTCC	0.0881
AATTTCAC	-0.254
AAGCAGCC	-0.242
AAACTCGT	-0.253
GGATACCA	0.327
AATCACAG	-0.092
GGATGGAA	-0.204
ATGCGAGG	-0.154
GAGGCATC	-0.29
ATCGTGGA	-0.17
CAGTAGCG	-0.000655
ATCGGCTG	-0.117
CAGCCCGA	-0.087
ATAGGGAT	0.0997
GCGACTTA	-0.0825
CAAGCGCG	-0.143

Sequence	binding signal [E-score]
TTAGTGAA	0.0486
CGGTACTC	0.0324
CACATGGG	0.0542
AGGTCTTG	-0.334
GCCCTACA	0.0464
ATTTCACG	-0.0615
CTGTGGGA	0.144
CTGCCAGA	-0.163
TGATGGCA	-0.157
AGACGTGC	-0.15
GCTCTTTA	-0.254
ACGACAAC	0.0123
ACGGGATC	0.197
ATGCCCCA	-0.16
CTGTAGGC	-0.31
ATGGGAGA	-0.131
AGTCGAAC	-0.094
GAGGGAAC	-0.115
AGACTGTA	-0.22
CTTAAGTC	-0.282
CTGATGGC	-0.118
CTGGCGGC	-0.0914

Sequence	binding signal [E-score]
AAGAACTT	-0.312
ATTGATGA	-0.266
ATGGCCCG	-0.123
CCCTTGAA	-0.0745
AGCGTCTG	-0.139
CTACACAC	0.297
CCTCGACC	0.0207
TAAGTCGA	-0.0334
AGTTTTAT	-0.197
GTCACAGA	-0.0317
ATCGGCCG	-0.145
AATTGGGA	-0.134
ACAAAAGA	-0.141
CGATCTGA	-0.182
GGGAACAA	0.0131
CGTTCACA	-0.0349
GAGCAGCA	-0.217
CGGCCGTA	-0.0496
ACAGAGTG	0.184
GACACACC	0.422
